Sequences and labels used below:
T1: RBFOX1 RRM RbFoxmut (Fox-RRM*) (Homo sapiens, UniProt Q9NWB1 109-208, R118D;E147R;N151S;E152T)
T1 sequence: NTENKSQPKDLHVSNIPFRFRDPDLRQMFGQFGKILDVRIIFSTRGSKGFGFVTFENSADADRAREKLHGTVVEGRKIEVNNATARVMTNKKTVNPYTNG

B1: AGUUGAA (DNA:RNA)
RNA: GGGAGACCGGAAUUCAGAUUGUCCAGUUGAAUUAAAUCCCGUCGUAGCCACCA
DNA 1: CAATCTGAATTCCGGTCTCCC
DNA 2: TGGTGGCTACGACGGGATT
B2: CGCCUGG (DNA:RNA)
RNA: B1 RNA with A25C, U27C, U28C, G29U, A30G, A31G
DNA 1: CAATCTGAATTCCGGTCTCCC
DNA 2: TGGTGGCTACGACGGGATT
B3: CUAUGCA (DNA:RNA)
RNA: B1 RNA with A25C, G26U, U27A, A30C
DNA 1: CAATCTGAATTCCGGTCTCCC
DNA 2: TGGTGGCTACGACGGGATT
B4: CGUCAAU (DNA:RNA)
RNA: B1 RNA with A25C, U28C, G29A, A31U
DNA 1: CAATCTGAATTCCGGTCTCCC
DNA 2: TGGTGGCTACGACGGGATT
B5: UUCCUCA (DNA:RNA)
RNA: B1 RNA with A25U, G26U, U27C, U28C, G29U, A30C
DNA 1: CAATCTGAATTCCGGTCTCCC
DNA 2: TGGTGGCTACGACGGGATT
B6: UUUGGUC (DNA:RNA)
RNA: B1 RNA with A25U, G26U, U28G, A30U, A31C
DNA 1: CAATCTGAATTCCGGTCTCCC
DNA 2: TGGTGGCTACGACGGGATT
B7: CAGAGUA (DNA:RNA)
RNA: B1 RNA with A25C, G26A, U27G, U28A, A30U
DNA 1: CAATCTGAATTCCGGTCTCCC
DNA 2: TGGTGGCTACGACGGGATT
B8: UCCGUAC (DNA:RNA)
RNA: B1 RNA with A25U, G26C, U27C, U28G, G29U, A31C
DNA 1: CAATCTGAATTCCGGTCTCCC
DNA 2: TGGTGGCTACGACGGGATT
B9: GUUAGGG (DNA:RNA)
RNA: B1 RNA with A25G, G26U, U28A, A30G, A31G
DNA 1: CAATCTGAATTCCGGTCTCCC
DNA 2: TGGTGGCTACGACGGGATT
B10: CCCCUGA (DNA:RNA)
RNA: B1 RNA with A25C, G26C, U27C, U28C, G29U, A30G
DNA 1: CAATCTGAATTCCGGTCTCCC
DNA 2: TGGTGGCTACGACGGGATT
B11: UAGUUUA (DNA:RNA)
RNA: B1 RNA with A25U, G26A, U27G, G29U, A30U
DNA 1: CAATCTGAATTCCGGTCTCCC
DNA 2: TGGTGGCTACGACGGGATT
B12: GGCUGGC (DNA:RNA)
RNA: B1 RNA with A25G, U27C, A30G, A31C
DNA 1: CAATCTGAATTCCGGTCTCCC
DNA 2: TGGTGGCTACGACGGGATT
B13: UUGCCUC (DNA:RNA)
RNA: GGGAGACCGGAAUUCAGAUUGUCCUUGCCUCUUAAAUCCCGUCGUAGCCACCA
DNA 1: CAATCTGAATTCCGGTCTCCC
DNA 2: TGGTGGCTACGACGGGATT
B14: UGGACGU (DNA:RNA)
RNA: B13 RNA with U26G, C28A, U30G, C31U
DNA 1: CAATCTGAATTCCGGTCTCCC
DNA 2: TGGTGGCTACGACGGGATT
B15: AGUGCGC (DNA:RNA)
RNA: B1 RNA with U28G, G29C, A30G, A31C
DNA 1: CAATCTGAATTCCGGTCTCCC
DNA 2: TGGTGGCTACGACGGGATT
B16: CAAUCGA (DNA:RNA)
RNA: B1 RNA with A25C, G26A, U27A, G29C, A30G
DNA 1: CAATCTGAATTCCGGTCTCCC
DNA 2: TGGTGGCTACGACGGGATT
B17: CGGGUUU (DNA:RNA)
RNA: B13 RNA with U25C, U26G, C28G, C29U, C31U
DNA 1: CAATCTGAATTCCGGTCTCCC
DNA 2: TGGTGGCTACGACGGGATT
B18: ACGUUUC (DNA:RNA)
RNA: B13 RNA with U25A, U26C, C28U, C29U
DNA 1: CAATCTGAATTCCGGTCTCCC
DNA 2: TGGTGGCTACGACGGGATT
B19: AGAGUGC (DNA:RNA)
RNA: B1 RNA with U27A, U28G, G29U, A30G, A31C
DNA 1: CAATCTGAATTCCGGTCTCCC
DNA 2: TGGTGGCTACGACGGGATT
B20: GGUGUGU (DNA:RNA)
RNA: B1 RNA with A25G, U28G, G29U, A30G, A31U
DNA 1: CAATCTGAATTCCGGTCTCCC
DNA 2: TGGTGGCTACGACGGGATT
B21: GUCGUGA (DNA:RNA)
RNA: B1 RNA with A25G, G26U, U27C, U28G, G29U, A30G
DNA 1: CAATCTGAATTCCGGTCTCCC
DNA 2: TGGTGGCTACGACGGGATT
B22: GGGCUUU (DNA:RNA)
RNA: B13 RNA with U25G, U26G, C29U, C31U
DNA 1: CAATCTGAATTCCGGTCTCCC
DNA 2: TGGTGGCTACGACGGGATT
B23: AGGAAAG (DNA:RNA)
RNA: B1 RNA with U27G, U28A, G29A, A31G
DNA 1: CAATCTGAATTCCGGTCTCCC
DNA 2: TGGTGGCTACGACGGGATT
B24: AAUUUAG (DNA:RNA)
RNA: B1 RNA with G26A, G29U, A31G
DNA 1: CAATCTGAATTCCGGTCTCCC
DNA 2: TGGTGGCTACGACGGGATT
B25: GGCGUCG (DNA:RNA)
RNA: B1 RNA with A25G, U27C, U28G, G29U, A30C, A31G
DNA 1: CAATCTGAATTCCGGTCTCCC
DNA 2: TGGTGGCTACGACGGGATT
B26: GAACCUG (DNA:RNA)
RNA: B13 RNA with U25G, U26A, G27A, C31G
DNA 1: CAATCTGAATTCCGGTCTCCC
DNA 2: TGGTGGCTACGACGGGATT
B27: UUCAACU (DNA:RNA)
RNA: B13 RNA with G27C, C28A, C29A, U30C, C31U
DNA 1: CAATCTGAATTCCGGTCTCCC
DNA 2: TGGTGGCTACGACGGGATT
B28: GUGCCAC (DNA:RNA)
RNA: B13 RNA with U25G, U30A
DNA 1: CAATCTGAATTCCGGTCTCCC
DNA 2: TGGTGGCTACGACGGGATT
B29: ACACGGA (DNA:RNA)
RNA: B1 RNA with G26C, U27A, U28C, A30G
DNA 1: CAATCTGAATTCCGGTCTCCC
DNA 2: TGGTGGCTACGACGGGATT
B30: UCUUUGC (DNA:RNA)
RNA: B1 RNA with A25U, G26C, G29U, A30G, A31C
DNA 1: CAATCTGAATTCCGGTCTCCC
DNA 2: TGGTGGCTACGACGGGATT
B31: ACACAUG (DNA:RNA)
RNA: B13 RNA with U25A, U26C, G27A, C29A, C31G
DNA 1: CAATCTGAATTCCGGTCTCCC
DNA 2: TGGTGGCTACGACGGGATT

Positions count from the first letter of the chain named. The list shows a part of the results.

This assay has as its target T1, RBFOX1 RRM RbFoxmut (Fox-RRM*). Description: EMSA; HiTS-Eq, 1 nM pool, 10 min; buffer printed only for the single-RNA assays: 10 mM Tris pH 7.5, 150 mM NaCl, 3.4 mM EDTA, 0.001% NP-40, 30 C. The conditions noted are these: tags: His6 N-terminal (pET28a); label: 5' 32P. The procedure, abridged:
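Relative association constants, normalised to the cognate motif, were derived by comparing read counts of each RNA species with those of the control reaction. The RNA sequenced was the free fraction, separated by 8% native PAGE after a 10 min equilibration in 50 µL of 1 nM 5′-radiolabelled RNA (7 randomized nucleotides) with increasing concentrations of purified wild-type or mutant RbFox RRM.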
As for B1, the binding signal is 0.104 KA relative to UGCAUGU.
In the case of B2 it was 0.151 KA relative to UGCAUGU; in that of B3, 0.208 KA relative to UGCAUGU; in that of B4, 0.0652 KA relative to UGCAUGU.
To B5 belongs 0.0935 KA relative to UGCAUGU.
For the molecule B6, the binding signal is 0.124 KA relative to UGCAUGU.
To B7 belongs 0.145 KA relative to UGCAUGU; to B8, 0.0905 KA relative to UGCAUGU; to B9, 0.0712 KA relative to UGCAUGU.
Turning to B10, the binding signal was 0.0997 KA relative to UGCAUGU.
To B11 belongs 0.136 KA relative to UGCAUGU; to B12, 0.106 KA relative to UGCAUGU; to B13, 0.072 KA relative to UGCAUGU.
On to B14, for which the binding signal is 0.147 KA relative to UGCAUGU.
To B15 belongs 0.112 KA relative to UGCAUGU; to B16, 0.0434 KA relative to UGCAUGU; to B17, 0.0926 KA relative to UGCAUGU.
Turning to B18, the binding signal was 0.0814 KA relative to UGCAUGU.
To B19 belongs 0.125 KA relative to UGCAUGU.
B20: the binding signal is 0.232 KA relative to UGCAUGU.
In the case of B21 it was 0.126 KA relative to UGCAUGU; in that of B22, 0.0637 KA relative to UGCAUGU.
In the case of B23 it was 0.151 KA relative to UGCAUGU; in that of B24, 0.107 KA relative to UGCAUGU.
In the case of B25 it was 0.203 KA relative to UGCAUGU; in that of B26, 0.0895 KA relative to UGCAUGU; in that of B27, 0.0572 KA relative to UGCAUGU.
Take B28: the binding signal is 0.0759 KA relative to UGCAUGU.
To B29 belongs 0.0828 KA relative to UGCAUGU; to B30, 0.115 KA relative to UGCAUGU.
In the case of B31 it was 0.113 KA relative to UGCAUGU.

These data come from publication PMC9911399, “Two distinct binding modes provide the RNA-binding protein RbFox with extraordinary sequence specificity”.
